These results are taken from paper PMC4336329 (PLoS ONE, 2015).

Structures are written as SMILES. The campaign covered roughly 310,000 compounds. About 14,000 (4.5%) showed an effect of 50% or more. Effects have a minus sign here. This is one part of the list.
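Further: peak tail current of the secondary pulse compared with the same well before compound.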

human ether-à-go-go-related gene (hERG) potassium channel, sequence (Q12809 whole entry, looked up): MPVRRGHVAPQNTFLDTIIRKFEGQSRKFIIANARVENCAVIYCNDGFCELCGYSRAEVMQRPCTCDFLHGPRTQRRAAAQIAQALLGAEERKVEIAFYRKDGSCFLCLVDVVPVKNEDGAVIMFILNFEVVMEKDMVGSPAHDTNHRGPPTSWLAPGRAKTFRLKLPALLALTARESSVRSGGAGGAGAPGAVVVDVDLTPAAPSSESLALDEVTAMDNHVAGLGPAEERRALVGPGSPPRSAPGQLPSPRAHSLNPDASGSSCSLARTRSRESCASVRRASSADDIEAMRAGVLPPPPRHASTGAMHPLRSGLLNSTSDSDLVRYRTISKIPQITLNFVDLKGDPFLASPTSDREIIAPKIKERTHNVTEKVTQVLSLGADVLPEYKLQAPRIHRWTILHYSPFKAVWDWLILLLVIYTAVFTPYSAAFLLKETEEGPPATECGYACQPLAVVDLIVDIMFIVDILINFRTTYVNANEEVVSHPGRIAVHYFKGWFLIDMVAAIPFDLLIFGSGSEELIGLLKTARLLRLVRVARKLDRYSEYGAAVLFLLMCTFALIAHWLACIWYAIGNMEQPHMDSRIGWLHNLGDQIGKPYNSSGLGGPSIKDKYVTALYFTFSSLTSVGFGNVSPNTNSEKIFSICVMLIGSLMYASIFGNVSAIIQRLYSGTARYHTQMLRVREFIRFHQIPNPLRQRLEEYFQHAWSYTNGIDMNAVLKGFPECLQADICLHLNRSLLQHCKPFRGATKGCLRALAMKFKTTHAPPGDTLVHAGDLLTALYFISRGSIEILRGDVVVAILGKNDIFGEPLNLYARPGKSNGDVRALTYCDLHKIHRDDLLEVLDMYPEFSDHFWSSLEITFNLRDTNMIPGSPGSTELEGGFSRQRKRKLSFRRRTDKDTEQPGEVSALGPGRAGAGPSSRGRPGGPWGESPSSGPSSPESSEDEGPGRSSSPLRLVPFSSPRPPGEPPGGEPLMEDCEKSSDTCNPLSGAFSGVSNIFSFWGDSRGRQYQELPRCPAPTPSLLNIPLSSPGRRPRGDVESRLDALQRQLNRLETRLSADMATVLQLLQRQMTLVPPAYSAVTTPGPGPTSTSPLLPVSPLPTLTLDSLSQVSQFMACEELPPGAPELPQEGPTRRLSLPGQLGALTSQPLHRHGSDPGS

This assay addresses human ether-à-go-go-related gene (hERG) potassium channel (human, UniProt Q12809). The assay is described as follows: primary screen, population patch clamp on CHO cells stably expressing hERG.
Take `CCCCn1c(N)c(N(CC)C(=O)c2c(CC)noc2C)c(=O)[nH]c1=O`: the “hERG current change (%, negative = inhibition) at 10uM” value is reported as 8.12%. In the case of `CC1CC(C)CN(C(=O)CCc2ccccc2)C1` (stereo not drawn), the “hERG current change (%, negative = inhibition) at 10uM” value is recorded as -2.16%. With `COc1cc(NC(=O)Cc2ccccc2)cc(OC)c1`, the “hERG current change (%, negative = inhibition) at 10uM” value was -4.79%.

As for `O=C(Nc1c(C(=O)N2CCN(c3ccccn3)CC2)oc2ccccc12)c1cccc([N+](=O)[O-])c1`, the “hERG current change (%, negative = inhibition) at 10uM” value was -48.8%. The result for `COc1ccc(S(=O)(=O)N2N=C(c3ccc(NS(C)(=O)=O)cc3)CC2c2ccco2)cc1` (stereo not drawn) reads -74.2%; that for `Cc1nc(C)c(C(=O)Nc2nc3c(C)cccc3s2)o1`, -5.72%; that for `COC(=O)CNC(=O)c1cn(-c2ccc(C)c(C)c2)c(=O)c2ccccc12`, 1.1%. The value for `COc1ccccc1C1=CC(=O)CC(C)(C)C1=O` was -1.87%; that for `COC(=O)C(C)N(c1ccc(OC)cc1)S(C)(=O)=O` (stereo not drawn) was 19.8%. As to `CCN(CC)CCNC(=S)Nc1ccc2nc(N3CCCC3)cc(C)c2c1`, the “hERG current change (%, negative = inhibition) at 10uM” value was -8.93%. The value for `Cc1cc(C(=O)N/N=C/c2c(C)nn(-c3ccccc3)c2Cl)n[nH]1` was -5.08%; that for `Cc1ccc(NC(=O)CCn2c(=O)c3cccn3c3ccccc32)cc1C` was 17.4%. The result for `O=C(Nc1nc(-c2ccc(F)cc2)cs1)c1cnccn1` reads -0.514%; that for `Cc1ccc(C(=O)Nc2ccc3c(c2)OCCO3)cc1`, 9.56%; that for `COc1ccc(NS(=O)(=O)c2cccc(C(=O)NCC(c3ccc(OC)cc3)N3CCCC3)c2)cc1` (stereo not drawn), -46.7%. The value for `Cc1ccccc1C(=O)NCC(=O)NCC1(N2CCOCC2)CCCCC1` was -25.7%.

`c1cn2c(NC3CCCC3)c(-c3ccc(N4CCOCC4)cc3)nc2cn1`: the “hERG current change (%, negative = inhibition) at 10uM” value was -12.8%.

As to `CC/C(=N/Nc1ccccc1Cl)c1cnnc(-c2ccccc2)n1`, the “hERG current change (%, negative = inhibition) at 10uM” value is reported as -18%. On to `Cc1cc2c(ncn2C)c(NS(=O)(=O)c2ccccc2Cl)c1C`, for which the “hERG current change (%, negative = inhibition) at 10uM” value is -15.7%. `CC(C)(C)C(=O)NC(=S)N1CCCC1`: the “hERG current change (%, negative = inhibition) at 10uM” value came to 5.68%.

Turning to `O=C(c1cc([N+](=O)[O-])ccc1N1CCCCC1)N1CCCC1`, the “hERG current change (%, negative = inhibition) at 10uM” value is reported as -11%. Take `COc1ccc(C(=O)Nc2ccccc2C(=O)N2CCOCC2)cc1Br`: the “hERG current change (%, negative = inhibition) at 10uM” value is recorded as -17.3%. In the case of `Cc1ccc(N(C)S(=O)(=O)c2ccc(-c3cnc(C4CC4)o3)cc2)cc1`, the “hERG current change (%, negative = inhibition) at 10uM” value is 8.38%. Take `Cc1nc2ccccc2c2oc(C(=O)NCCN3CCCCC3C)cc12` (stereo not drawn): the “hERG current change (%, negative = inhibition) at 10uM” value is reported as -7.43%. Take `Cn1c(=O)c([N+](=O)[O-])c(NCc2ccccc2Cl)c2ccccc21`: the “hERG current change (%, negative = inhibition) at 10uM” value was -11.7%. `Cl.O=C(c1ccco1)N1CCN(CCCCOc2ccc(F)cc2)CC1`: the “hERG current change (%, negative = inhibition) at 10uM” value is -74.4%.

As for `c1ccc2[nH]c(SCc3cn4cccnc4n3)nc2c1`, the “hERG current change (%, negative = inhibition) at 10uM” value turned out to be 0.131%. The result for `COc1cc2c(cc1OC)C1=C(C#N)COCN1CC2` reads 7.69%; that for `CS(=O)(=O)N(CC(=O)Nc1ccc(S(=O)(=O)N2CCCC2)cc1)c1ccccc1F`, 0.317%; that for `Cc1ccc(C(=O)Nc2ccon2)cc1S(=O)(=O)N1CCCC1`, -23%.

Consider `NC(=O)C1CCN(C(=O)c2ccc3c(=O)n(Cc4ccco4)c(SCC(=O)c4ccc(F)cc4)nc3c2)CC1`, for which the “hERG current change (%, negative = inhibition) at 10uM” value is 5.19%.

Regarding `O=C(c1ccccc1)N1N=C(C(F)(F)F)CC1(O)c1ccccc1O` (stereo not drawn), the “hERG current change (%, negative = inhibition) at 10uM” value is 21%. With `COc1cccc(NC(=O)Nc2cc(C(=O)NC(C)C)ccc2N2CC3CC(C2)c2cccc(=O)n2C3)c1` (stereo not drawn), the “hERG current change (%, negative = inhibition) at 10uM” value is recorded as -19.5%. For `CC1(c2ccccc2)NC(=O)N(CC(=O)Nc2ccc(C(N)=O)cc2)C1=O` (stereo not drawn), the “hERG current change (%, negative = inhibition) at 10uM” value was 22%. Regarding `O=C(NCc1cccc(C(F)(F)F)c1)c1cccc(Cl)c1Cl`, the “hERG current change (%, negative = inhibition) at 10uM” value worked out at 10.5%. For the compound `O=C(c1ccc(Cl)c([N+](=O)[O-])c1)N1CCN(Cc2ccc3c(c2)OCO3)CC1`, the “hERG current change (%, negative = inhibition) at 10uM” value is -26.7%. `Cc1nc(Cl)c2c(n1)NC(=O)CO2`: the “hERG current change (%, negative = inhibition) at 10uM” value is given as 16.6%. For the compound `CS/C(=N\S(=O)(=O)c1cccs1)NC(=O)CSc1nc2ccccc2s1`, the “hERG current change (%, negative = inhibition) at 10uM” value is given as 21%. Turning to `O=C(c1cc2ccccc2oc1=O)N(Cc1ccco1)CC1CCCO1` (stereo not drawn), the “hERG current change (%, negative = inhibition) at 10uM” value came out at 6.96%. The value for `CCOc1cc(CNc2ccc3c(c2)CCC3)ccc1OC` was -8.96%. On to `CC(C)CN(C(=O)CSc1nnnn1C)C1CCS(=O)(=O)C1` (stereo not drawn), for which the “hERG current change (%, negative = inhibition) at 10uM” value turned out to be 26%. For `O=C(CN1CCN(Cc2ccccc2)CC1)N=Nc1c(O)[nH]c2ccccc12`, the “hERG current change (%, negative = inhibition) at 10uM” value is recorded as -65%. Take `CC1CCN(CCCNC(=O)c2ccc(Cn3c(=S)[nH]c4ccc(Br)cc4c3=O)cc2)CC1`: the “hERG current change (%, negative = inhibition) at 10uM” value is on record as -40.1%. Consider `Cn1c(=O)n(C)c2cc(NC(=O)C(F)(F)F)ccc21`, for which the “hERG current change (%, negative = inhibition) at 10uM” value was determined as 4.79%. On to `CCCCNc1c(NC(C)=O)c(=O)oc2ccccc12`, for which the “hERG current change (%, negative = inhibition) at 10uM” value was determined as 20.7%.

`CCOc1ccc(Br)cc1S(=O)(=O)Nc1ccccc1N1CCOCC1`: the “hERG current change (%, negative = inhibition) at 10uM” value is -15.8%. Take `COc1ccc(OC)c(CNc2ccc3c(c2)CCC3)c1`: the “hERG current change (%, negative = inhibition) at 10uM” value was determined as 20.4%. For the compound `c1ccc(Nc2nc(N3CCCCC3)nc(N3CCNCC3)n2)cc1`, the “hERG current change (%, negative = inhibition) at 10uM” value is reported as -38.1%.

As for `COc1ccc(NC(=O)CNC(=O)c2c(C)nn(C)c2Cl)cc1`, the “hERG current change (%, negative = inhibition) at 10uM” value is reported as 25.3%.

As to `CCc1c(C(=O)N2CCN(c3ccccc3F)CC2)[nH]c(C)c1C(C)=O`, the “hERG current change (%, negative = inhibition) at 10uM” value was 2.5%.

In the case of `COCCn1c(SCC(=O)Nc2ccc(NC(=O)c3ccco3)c(OC)c2)nc2ccccc2c1=O`, the “hERG current change (%, negative = inhibition) at 10uM” value is reported as -12.1%. The result for `CC(NC(=O)c1ccco1)c1ccc2c(c1)OCO2` (stereo not drawn) reads -25.4%. The result for `CCOC(=O)c1sc(NC(=O)c2ccc(S(=O)(=O)N(CC)CC)cc2)nc1C` reads -2.85%; that for `Cc1cccc(Cn2ccc(NC(=O)c3ccc4c(c3)OCO4)n2)c1`, -34.3%; that for `O=c1cc(-c2ccccc2)nc2nc(CCc3ccccc3)[nH]n12`, 11.7%. With `CN1C(=O)c2oc3ccccc3c(=O)c2C1c1cccnc1` (stereo not drawn), the “hERG current change (%, negative = inhibition) at 10uM” value is -8.75%. In the case of `CCOC(=O)c1ncccc1NC(=O)CC(=O)Nc1cccnc1C(=O)OCC`, the “hERG current change (%, negative = inhibition) at 10uM” value is 11.3%.
